Reference: the supplement of paper PMC9046079
Where a name gives a salt, the structure may show the parent alone. ± gives the standard deviation of the averaged measurements. Some of the results follow.

System: murine small intestinal organoids (ENR+CD Paneth differentiation)
Experiment: cellular ATP (CellTiter-Glo 3D) relative to plate median (log10 fold change); higher = more viable cells
Settings: 0.08 µM; 6 d
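Also: 2.5D pseudo-monolayer culture of ISC-enriched organoids partly embedded atop Matrigel, compound added on day 0 and again on day 3, per-plate LOESS correction before median fold change.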

Question: For `COc1ccc(C(=O)N2CCCC2=O)cc1` [Aniracetam], which “cellular ATP (log10)” value is on record?
Answer: -0.0882 ± 0.14

Question: How did the “cellular ATP (log10)” value turn out when `C[C@](O)(COc1ccc(C#N)cc1)C(=O)Nc1ccc(C#N)c(C(F)(F)F)c1` was run?
Answer: 0.0013 ± 0.16

Question: For `Cc1cc(SCc2sc(-c3ccc(C(F)(F)F)c(F)c3)nc2C)ccc1OCC(=O)O`, which “cellular ATP (log10)” value is on record?
Answer: -0.751 ± 1.3

Question: `O=C(O)CNC(=O)c1c(O)c2ccccc2n(Cc2ccccc2)c1=O` was tested. Which “cellular ATP (log10)” value did it give?
Answer: 0.149 ± 0.11

Question: `C[C@@H]1O[C@@H](O[C@H]2C[C@@H](O)[C@]3(CO)[C@H]4[C@H](O)C[C@]5(C)[C@@H](C6=CC(=O)OC6)CC[C@]5(O)[C@@H]4CC[C@]3(O)C2)[C@H](O)[C@H](O)[C@H]1O` [Ouabain] was tested. Which “cellular ATP (log10)” value did it give?
Answer: 0.00966 ± 0.18

Question: `CCc1c(C(=O)C(N)=O)c2c(OCC(=O)O)cccc2n1Cc1ccccc1` was tested. Which “cellular ATP (log10)” value did it give?
Answer: 0.405 ± 0.12

Question: For `CCC(COC(=O)c1cc(OC)c(OC)c(OC)c1)(c1ccccc1)N(C)C` (stereo unspecified) [Trimebutine], which “cellular ATP (log10)” value is on record?
Answer: -0.65 ± 1.1

Question: For `CN1CCc2cc3c(cc2C1C1OC(=O)c2c1ccc1c2OCO1)OCO3` (single isomer, unassigned; (+)) [(+)-Bicuculline], which “cellular ATP (log10)” value is on record?
Answer: 0.318 ± 0.49

Question: `Fc1cc(F)c2c(c1)[C@H]1C=CC[C@H]1C(c1cccnc1)N2` (stereo partly specified) [Golgicide A] was tested. Which “cellular ATP (log10)” value did it give?
Answer: 0.167 ± 0.26

Question: With `Cn1cc(C2=C(c3cn(C4CCN(Cc5ccccn5)CC4)c4ccccc34)C(=O)NC2=O)c2ccccc21` as the compound, how does the “cellular ATP (log10)” value read?
Answer: 0.236 ± 0.13

Question: How did the “cellular ATP (log10)” value turn out when `CCN(CC)C(=O)c1ccc(C2=CC3(CCNCC3)Oc3cccc(O)c32)cc1` was run?
Answer: 0.27 ± 0.025

Question: With `Cc1sc2c(c1C)C(c1ccc(Cl)cc1)=N[C@@H](CC(=O)OC(C)(C)C)c1nnc(C)n1-2` as the compound, how does the “cellular ATP (log10)” value read?
Answer: -0.223 ± 0.3

Question: With `COc1cc(-n2c(=S)[nH]c3ccccc3c2=O)c(Cl)cc1Cl` [Mdivi-1] as the compound, how does the “cellular ATP (log10)” value read?
Answer: 0.00809 ± 0.13

Question: Which “cellular ATP (log10)” value does the source give for `O=c1[nH]c2ccc(Cl)cc2c(N[C@@H]2CN3CCC2CC3)c1-c1nc2ccccc2[nH]1` here?
Answer: -0.256 ± 0.17

Question: How did the “cellular ATP (log10)” value turn out when `CCCN1CCO[C@@H]2c3cc(O)ccc3OC[C@H]21` was run?
Answer: 0.313 ± 0.017

Question: Which “cellular ATP (log10)” value does the source give for `N[C@@H]1C[C@H]1c1ccccc1` [Tranylcypromine (2-PCPA) HCl] here?
Answer: -0.0329 ± 0.49

Question: For `CCOC(=O)c1cncn1[C@H](C)c1ccccc1` [Etomidate], which “cellular ATP (log10)” value is on record?
Answer: 0.0841 ± 0.039

Question: Which “cellular ATP (log10)” value does the source give for `CC[C@@H]1/C=C/C=C/C[C@H](C)[C@H](O)[C@](C)(O)C(=O)[C@H](C)[C@@H](O)[C@H](C)C(=O)[C@H](C)[C@@H](O)[C@H](C)/C=C/C(=O)O[C@H]2[C@@H](C)[C@@H](CC1)O[C@@]1(CC[C@@H](C)[C@@H](C[C@H](C)O)O1)[C@@H]2C` [Oligomycin A] here?
Answer: -0.662 ± 0.28

Question: `Cc1ccc(-n2nccn2)c(C(=O)N2CCN(c3nc4cc(Cl)ccc4o3)CC[C@H]2C)c1` [Suvorexant (MK-4305)] was tested. Which “cellular ATP (log10)” value did it give?
Answer: 0.15 ± 0.019

Question: `CN1CCCCC1Cn1cc(C(=O)c2cc([N+](=O)[O-])ccc2I)c2ccccc21` (stereo unspecified) was tested. Which “cellular ATP (log10)” value did it give?
Answer: 0.159 ± 0.19

Question: `Cc1sc2c(c1C)C(c1ccc(Cl)cc1)=N[C@@H](CC(=O)Nc1ccc(O)cc1)c1nnc(C)n1-2` was tested. Which “cellular ATP (log10)” value did it give?
Answer: -0.0384 ± 0.17

Question: With `O=C(O[C@H]1C[C@H]2CC[C@@H](C1)[N+]21CCCC1)C(O)(c1ccccc1)c1ccccc1` [Trospium chloride] as the compound, how does the “cellular ATP (log10)” value read?
Answer: 0.139 ± 0.14

Question: For `C=C1C[C@@H]2[C@H](CC[C@]3(C)C(=O)CC[C@@H]23)[C@@]2(C)C=CC(=O)C=C12` [Exemestane], which “cellular ATP (log10)” value is on record?
Answer: -0.0459 ± 0.41

Question: How did the “cellular ATP (log10)” value turn out when `C[C@@]12N[C@@H](Cc3ccccc31)c1ccccc12` [(-)-MK 801 Maleate] was run?
Answer: 0.127 ± 0.087

Question: How did the “cellular ATP (log10)” value turn out when `O=[N+]([O-])/C=C/c1ccc2c(c1)OCO2` [MNS (3,4-Methylenedioxy-Œ≤-nitrostyrene, MDBN)] was run?
Answer: -0.0156 ± 0.42

Question: How did the “cellular ATP (log10)” value turn out when `CC(=O)O[C@H]1C[C@@H]2CC[C@@H]3[C@H](CC[C@@]4(C)[C@H]3C[C@H]([N+]3(C)CCCCC3)[C@@H]4OC(C)=O)[C@@]2(C)C[C@@H]1[N+]1(C)CCCCC1` [Pancuronium dibromide] was run?
Answer: 0.217 ± 0.12

Question: Which “cellular ATP (log10)” value does the source give for `CCOc1ccccc1-n1c(C(C)N2CCN(C(=O)COc3ccc(Cl)cc3)CC2)nc2ccccc2c1=O` (stereo unspecified) [Erastin] here?
Answer: 0.225 ± 0.27

Question: `Cc1cc2c(C(C)C)c(O)c(O)c(C=O)c2c(O)c1-c1c(C)cc2c(C(C)C)c(O)c(O)c(C=O)c2c1O` was tested. Which “cellular ATP (log10)” value did it give?
Answer: -0.198 ± 0.42

Same assay, conditions: 0.4 µM; 6 d

Question: `COc1ccc(C(=O)N2CCCC2=O)cc1` [Aniracetam] was tested. Which “cellular ATP (log10)” value did it give?
Answer: 0.112 ± 0.15

Question: For `C[C@](O)(COc1ccc(C#N)cc1)C(=O)Nc1ccc(C#N)c(C(F)(F)F)c1`, which “cellular ATP (log10)” value is on record?
Answer: -0.198 ± 0.51

Question: Which “cellular ATP (log10)” value does the source give for `Cc1cc(SCc2sc(-c3ccc(C(F)(F)F)c(F)c3)nc2C)ccc1OCC(=O)O` here?
Answer: -0.489 ± 0.89

Question: How did the “cellular ATP (log10)” value turn out when `O=C(O)CNC(=O)c1c(O)c2ccccc2n(Cc2ccccc2)c1=O` was run?
Answer: 0.0776 ± 0.1

Question: With `C[C@@H]1O[C@@H](O[C@H]2C[C@@H](O)[C@]3(CO)[C@H]4[C@H](O)C[C@]5(C)[C@@H](C6=CC(=O)OC6)CC[C@]5(O)[C@@H]4CC[C@]3(O)C2)[C@H](O)[C@H](O)[C@H]1O` [Ouabain] as the compound, how does the “cellular ATP (log10)” value read?
Answer: 0.122 ± 0.087

Question: Which “cellular ATP (log10)” value does the source give for `CCc1c(C(=O)C(N)=O)c2c(OCC(=O)O)cccc2n1Cc1ccccc1` here?
Answer: 0.18 ± 0.26

Question: Which “cellular ATP (log10)” value does the source give for `CCC(COC(=O)c1cc(OC)c(OC)c(OC)c1)(c1ccccc1)N(C)C` (stereo unspecified) [Trimebutine] here?
Answer: -0.209 ± 0.28

Question: For `CN1CCc2cc3c(cc2C1C1OC(=O)c2c1ccc1c2OCO1)OCO3` (single isomer, unassigned; (+)) [(+)-Bicuculline], which “cellular ATP (log10)” value is on record?
Answer: -0.0291 ± 0.21

Question: `Fc1cc(F)c2c(c1)[C@H]1C=CC[C@H]1C(c1cccnc1)N2` (stereo partly specified) [Golgicide A] was tested. Which “cellular ATP (log10)” value did it give?
Answer: 0.227 ± 0.18

Question: `Cn1cc(C2=C(c3cn(C4CCN(Cc5ccccn5)CC4)c4ccccc34)C(=O)NC2=O)c2ccccc21` was tested. Which “cellular ATP (log10)” value did it give?
Answer: 0.475 ± 0.25

Question: How did the “cellular ATP (log10)” value turn out when `CCN(CC)C(=O)c1ccc(C2=CC3(CCNCC3)Oc3cccc(O)c32)cc1` was run?
Answer: 0.163 ± 0.16

Question: For `Cc1sc2c(c1C)C(c1ccc(Cl)cc1)=N[C@@H](CC(=O)OC(C)(C)C)c1nnc(C)n1-2`, which “cellular ATP (log10)” value is on record?
Answer: -0.861 ± 0.47

Question: Which “cellular ATP (log10)” value does the source give for `COc1cc(-n2c(=S)[nH]c3ccccc3c2=O)c(Cl)cc1Cl` [Mdivi-1] here?
Answer: -0.0312 ± 0.28

Question: With `O=c1[nH]c2ccc(Cl)cc2c(N[C@@H]2CN3CCC2CC3)c1-c1nc2ccccc2[nH]1` as the compound, how does the “cellular ATP (log10)” value read?
Answer: -0.853 ± 0.38

Question: `CCCN1CCO[C@@H]2c3cc(O)ccc3OC[C@H]21` was tested. Which “cellular ATP (log10)” value did it give?
Answer: 0.401 ± 0.092

Question: For `N[C@@H]1C[C@H]1c1ccccc1` [Tranylcypromine (2-PCPA) HCl], which “cellular ATP (log10)” value is on record?
Answer: 0.0386 ± 0.02

Question: `CCOC(=O)c1cncn1[C@H](C)c1ccccc1` [Etomidate] was tested. Which “cellular ATP (log10)” value did it give?
Answer: 0.00574 ± 0.32

Question: With `CC[C@@H]1/C=C/C=C/C[C@H](C)[C@H](O)[C@](C)(O)C(=O)[C@H](C)[C@@H](O)[C@H](C)C(=O)[C@H](C)[C@@H](O)[C@H](C)/C=C/C(=O)O[C@H]2[C@@H](C)[C@@H](CC1)O[C@@]1(CC[C@@H](C)[C@@H](C[C@H](C)O)O1)[C@@H]2C` [Oligomycin A] as the compound, how does the “cellular ATP (log10)” value read?
Answer: -0.706 ± 0.5

Question: `Cc1ccc(-n2nccn2)c(C(=O)N2CCN(c3nc4cc(Cl)ccc4o3)CC[C@H]2C)c1` [Suvorexant (MK-4305)] was tested. Which “cellular ATP (log10)” value did it give?
Answer: 0.249 ± 0.28

Question: `CN1CCCCC1Cn1cc(C(=O)c2cc([N+](=O)[O-])ccc2I)c2ccccc21` (stereo unspecified) was tested. Which “cellular ATP (log10)” value did it give?
Answer: -0.0539 ± 0.27

Question: `Cc1sc2c(c1C)C(c1ccc(Cl)cc1)=N[C@@H](CC(=O)Nc1ccc(O)cc1)c1nnc(C)n1-2` was tested. Which “cellular ATP (log10)” value did it give?
Answer: -0.398 ± 0.44

Question: For `O=C(O[C@H]1C[C@H]2CC[C@@H](C1)[N+]21CCCC1)C(O)(c1ccccc1)c1ccccc1` [Trospium chloride], which “cellular ATP (log10)” value is on record?
Answer: 0.00615 ± 0.21

Question: How did the “cellular ATP (log10)” value turn out when `C=C1C[C@@H]2[C@H](CC[C@]3(C)C(=O)CC[C@@H]23)[C@@]2(C)C=CC(=O)C=C12` [Exemestane] was run?
Answer: -0.407 ± 0.81

Question: `C[C@@]12N[C@@H](Cc3ccccc31)c1ccccc12` [(-)-MK 801 Maleate] was tested. Which “cellular ATP (log10)” value did it give?
Answer: -0.377 ± 0.073

Question: `O=[N+]([O-])/C=C/c1ccc2c(c1)OCO2` [MNS (3,4-Methylenedioxy-Œ≤-nitrostyrene, MDBN)] was tested. Which “cellular ATP (log10)” value did it give?
Answer: 0.0613 ± 0.25

Question: With `CC(=O)O[C@H]1C[C@@H]2CC[C@@H]3[C@H](CC[C@@]4(C)[C@H]3C[C@H]([N+]3(C)CCCCC3)[C@@H]4OC(C)=O)[C@@]2(C)C[C@@H]1[N+]1(C)CCCCC1` [Pancuronium dibromide] as the compound, how does the “cellular ATP (log10)” value read?
Answer: 0.226 ± 0.062

Question: How did the “cellular ATP (log10)” value turn out when `CCOc1ccccc1-n1c(C(C)N2CCN(C(=O)COc3ccc(Cl)cc3)CC2)nc2ccccc2c1=O` (stereo unspecified) [Erastin] was run?
Answer: 0.285 ± 0.21

Question: How did the “cellular ATP (log10)” value turn out when `Cc1cc2c(C(C)C)c(O)c(O)c(C=O)c2c(O)c1-c1c(C)cc2c(C(C)C)c(O)c(O)c(C=O)c2c1O` was run?
Answer: 0.0186 ± 0.29
